Measured values: PubChem BioAssay AID504832 (National Center for Advancing Translational Sciences (NCATS), 2011)
The campaign covered roughly 310,000 compounds. About 18,000 (5.8%) were called active. The shares of active, inactive and inconclusive entries below differ from those in the screen. Calls come from the whole dose curve; as a rule, active = well fitted inhibition curve with a large enough effect; inconclusive = small, poorly fitted or top-dose-only effect, or another doubt; inactive = no such curve, though single readings can be large or run the other way. No potency is given beside an inconclusive call; the fits are too rough.

Assay: Primary qHTS for delayed death inhibitors of the malarial parasite plastid, 48 hour incubation
Settings: P. falciparum luciferase growth in erythrocytes; series mostly up to 28.7 µM
Method in brief: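 Luciferase-expressing parasites in RBCs, 2% Hct / 0.1% parasitemia final; RPMI 1640 + 0.5% Albumax; 37 C, 5% CO2, one generation; luminescence read-out, lower signal = inhibition.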
Potency is the fitted concentration of half-maximal effect; tags give direction and shape of the fitted curve.

SMILES | Potency
C=CCn1c(SCC(=O)NC2CC2)nc2ccccc2c1=O | inconclusive [inhibitor, full curve, poor fit]
Cc1ccc(Cl)cc1N1CCN(C(=O)C2CCN(c3nnc(-n4cccc4)s3)CC2)CC1 | active: 13.1 µM
CCOC(=O)CC(=O)CSc1nc2ccccc2c(=O)n1-c1ccc(C(=O)NCCOC)cc1 | active: 5.22 µM
COc1ccc(CN2CCN(C(=O)COc3cccc(C)c3)CC2)c(OC)c1 | inconclusive [inhibitor, single point]
N#CCSc1nnc(COc2cccc3ccccc23)n1-c1cccc(Cl)c1 | inconclusive [inhibitor, single point]
Cc1ccccc1CNC(=O)CCC(=O)N1Cc2ccccc2Oc2ncccc21 | inconclusive [inhibitor, single point]
Cc1sc2nc(SCC(=O)c3cc(C)n(CC4CCCO4)c3C)n(C(C)C)c(=O)c2c1C (centres undefined) | inconclusive [inhibitor, full curve, poor fit]
COc1ccccc1N(CC(=O)NCC1CCCO1)C(=O)CNS(=O)(=O)c1ccccc1 (centres undefined) | inconclusive [inhibitor, single point]
CC(=O)Nc1ccc2c(c1)OCCOCCOc1cc(NC(C)=O)ccc1OCCOCCOCCO2 | inconclusive [inhibitor, single point]
CCCCNC(=O)c1cc2c(=O)n3cccc(C)c3nc2n(CCN2CCOCC2)c1=N | active: 3.7 µM
O=C(Nc1ccccc1C(=O)O)c1ccc(NC(=O)C2CCCO2)cc1 (centres undefined) | inactive
COc1cc2cnc(-c3ccccc3)c(-c3cccc(C(F)(F)F)c3)c2cc1OC | inconclusive [inhibitor, partial curve, poor fit]
O=C(/C=C/c1cccc([N+](=O)[O-])c1)NC(=S)Nc1cccc(NC(=O)c2ccccc2Cl)c1 | active: 13.1 µM
Nc1nonc1-n1nnc(C(=O)N/N=C/c2ccc(OCc3ccccc3)cc2)c1CNc1ccccc1 | inactive
Cc1cccc(C)c1NC(=O)CN(C)CC(=O)c1c(N)n(Cc2ccccc2)c(=O)n(C)c1=O | active: 11.7 µM
CCOC(=O)Cc1csc(N/N=C/c2ccc(C(F)(F)F)cc2)n1 | inactive
CCC(=O)O[C@@]1(C(=O)CCl)C(C)CC2C3CCC4=CC(=O)C=C[C@@]4(C)[C@]3(F)C(O)C[C@]21C (some centres undefined) | active: 6.75 µM
CCCCC(=O)NC(=S)Nc1ccc(NC(=O)C(C)C)c(OC)c1 | inactive
O=C(CSC1=NS(=O)(=O)c2ccccc2N1)N1CCCCC1 | inactive
